# In paper PMC4336329 (PLoS ONE, 2015):
# The campaign covered roughly 310,000 compounds. About 2,200 (0.71%) showed an effect of 50% or more. The effect is printed as a negative number. Some of the results follow.
# Target: human ether-à-go-go-related gene (hERG) potassium channel (human, UniProt Q12809)
# Assay: primary screen, population patch clamp on CHO cells stably expressing hERG
# Sequence of human ether-à-go-go-related gene (hERG) potassium channel (Q12809 whole entry, looked up): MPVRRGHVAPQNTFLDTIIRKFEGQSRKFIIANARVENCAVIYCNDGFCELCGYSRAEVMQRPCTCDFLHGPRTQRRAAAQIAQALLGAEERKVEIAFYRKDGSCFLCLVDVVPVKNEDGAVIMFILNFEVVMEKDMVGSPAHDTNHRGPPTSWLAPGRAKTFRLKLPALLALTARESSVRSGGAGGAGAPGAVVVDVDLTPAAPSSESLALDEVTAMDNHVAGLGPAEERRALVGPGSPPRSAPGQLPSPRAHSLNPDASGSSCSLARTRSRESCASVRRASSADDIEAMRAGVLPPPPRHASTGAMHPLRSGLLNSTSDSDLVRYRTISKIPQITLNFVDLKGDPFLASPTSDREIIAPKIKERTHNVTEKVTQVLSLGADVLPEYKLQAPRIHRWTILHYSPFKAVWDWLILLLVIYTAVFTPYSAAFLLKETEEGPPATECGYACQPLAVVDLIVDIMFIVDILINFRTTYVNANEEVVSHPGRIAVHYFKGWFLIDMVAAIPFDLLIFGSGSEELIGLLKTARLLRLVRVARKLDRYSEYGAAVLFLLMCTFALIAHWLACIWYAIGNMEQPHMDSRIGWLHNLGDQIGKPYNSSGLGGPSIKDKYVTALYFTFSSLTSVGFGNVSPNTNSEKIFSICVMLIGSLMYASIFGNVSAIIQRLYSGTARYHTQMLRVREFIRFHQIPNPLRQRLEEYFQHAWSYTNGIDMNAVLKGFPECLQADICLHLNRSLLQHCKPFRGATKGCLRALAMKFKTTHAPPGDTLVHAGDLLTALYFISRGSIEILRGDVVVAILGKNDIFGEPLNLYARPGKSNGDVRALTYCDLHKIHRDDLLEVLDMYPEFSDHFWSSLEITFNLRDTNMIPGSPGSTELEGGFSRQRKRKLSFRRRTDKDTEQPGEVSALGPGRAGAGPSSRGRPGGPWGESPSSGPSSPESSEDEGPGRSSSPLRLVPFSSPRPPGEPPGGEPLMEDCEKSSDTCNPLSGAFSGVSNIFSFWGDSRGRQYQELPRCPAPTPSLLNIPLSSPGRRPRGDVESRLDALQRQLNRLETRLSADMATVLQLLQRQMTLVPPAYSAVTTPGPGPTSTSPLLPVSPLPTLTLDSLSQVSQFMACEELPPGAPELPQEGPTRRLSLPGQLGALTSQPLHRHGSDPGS
row,Structure (SMILES),"hERG current change (%, negative = inhibition) at 1uM [%]"
1,Cc1cc(C)cc(C(=O)N2CCN=C2SCc2ccc([N+](=O)[O-])cc2)c1,9.72
2,O=c1[nH]c2cc3c(cc2cc1CN(CCc1ccccc1)Cc1nnnn1CC1CCCO1)OCO3 (centres unmarked),-6.08
3,COc1ccc(NC(=O)C2=CC(c3ccc(C)cc3)=NS(=O)(=O)N2C)cc1,8.61
4,COc1ccc(/C=N/NC(=O)c2ccncc2)cc1CN1CCN(c2ccc(F)cc2)CC1,-54.2
5,Cc1ccc(CNC(=O)Cc2ccc(Br)cc2)cc1,16.4
6,CCCNC(=O)C1CCN(S(=O)(=O)c2ccc3c(c2)OCCO3)CC1,2.83
7,COCCCNC(=S)NCCc1ccc(F)cc1,11.6
8,CCC(C)NCCCCOc1ccc(Br)cc1.O=C(O)C(=O)O (centres unmarked),-0.232
9,Cc1ccc(-n2[nH]c(C)c(C=Nc3ccc(S(=O)(=O)Nc4nccs4)cc3)c2=O)cc1C,10.3
10,Cc1ccc(S(=O)(=O)CCC(=O)Nc2ccc(Br)cc2)cc1,9.15
11,CCCSc1nnc(-c2cnn(-c3ccccc3)c2-n2cccc2)n1C,-3.65
12,COc1cccc(CNC(=O)c2ccc(CS(=O)(=O)Cc3ccccc3C)o2)c1,9.33
13,CCc1ccc2c(CN3CCOCC3)cc(=O)oc2c1,-4.5
14,NC(=S)Nc1cccc(O)c1,10.2
15,C/C(=N\NC(=O)c1cccc2ccccc12)c1cccs1,1.5
16,COc1ccc(CNC(=O)COC(=O)c2ccc(OCc3c(C)noc3C)cc2)cc1OC,16.6
17,C[C@]12C(=O)N(c3ccc(Cl)cc3)C(=O)N1[C@@H]1c3ccccc3OC[C@@H]1[C@H]2c1ccccc1,10.9
18,Cc1oc(/N=C/c2ccc(O)cc2O)c(C#N)c1C,16
19,COc1ccccc1-c1cc(C(=O)N2CCCCC2)no1,1.25

row,Structure (SMILES),"hERG current change (%, negative = inhibition) at 1uM [%]"
1,COc1ccc(Oc2nc3c(c(=O)n(C)c(=O)n3C)n2C)cc1,18.2
2,CN(CCc1ccccn1)C(=O)CCC1CCCN(C(=O)c2c3c(nn2C)CCCC3)C1 (centres unmarked),9.24
3,CCCCOc1ccc(C(=O)NCC(=O)NC2CCC(C)CC2)cc1 (centres unmarked),-4.83
4,CCc1ccc(-c2csc(-c3c[nH]c4ccccc34)n2)cc1,6.97
5,COc1ccc(NC(=O)CN(C)C(=O)CSCC(=O)Nc2ccc(C)cc2)cc1,16.4
6,Cc1c(Cl)cccc1NC(=O)CSCc1cc(=O)[nH][nH]1,-2.49
7,Cc1ccccc1NC(=O)CSc1nnc(Cc2ccccc2)c(=O)n1N,14.5
8,Cc1c(NC(=O)CSCc2ccccc2)cccc1C(=O)O,19.7
9,O=C1CN(C(=O)COC(=O)c2cc(S(=O)(=O)N3CCOCC3)ccc2Cl)c2ccccc2N1,-2.2
10,CCN(C(=O)Cn1c(=O)oc2cc(S(=O)(=O)N3CCOCC3)ccc21)c1ccccc1,8.21
11,CC(C)(CN1CCc2ccccc2C1)NS(=O)(=O)c1ccc(Cl)cc1,8.91
12,CCCCN(C(=O)Cc1coc2cc(C)c(C)cc12)c1c(N)n(Cc2ccccc2)c(=O)[nH]c1=O,-1.96
13,CC(=O)Nc1cc(C(=O)OCC(=O)c2ccc(Cl)cc2Cl)ccc1C,15.3
14,Cn1ncc(C#N)c1NC(=O)C1CC(c2c(F)cccc2Cl)=NO1 (centres unmarked),-2.08
15,COc1ccc(-n2nc(C(=O)NCC(=O)N3CCCC(C)C3)c3ccccc3c2=O)cc1 (centres unmarked),17.2
16,CC(NC(=O)C(C)N1c2cccc3cccc(c23)S1(=O)=O)c1ccccc1 (centres unmarked),12.3
17,CCOc1ccccc1OCC(=O)Nc1nnc(COC)s1,-12.4
18,Cc1ccc(C)n1-c1cccc(C(=O)O)c1,-2.91
19,CC(=O)NC(CC(=O)NNC(=O)C(C)Oc1ccccc1F)c1ccccc1 (centres unmarked),3.28

row,Structure (SMILES),"hERG current change (%, negative = inhibition) at 1uM [%]"
1,Cc1ccc(S(=O)(=O)Nc2ccccc2CNc2c(C)n(C)n(-c3ccccc3)c2=O)cc1,10.1
2,O=C(Cn1nc(CNc2ccc(Cl)cc2)[n+]2c1CCCCC2)c1ccc(Cl)cc1.[Br-],3.01
3,Cc1cccc(-n2nnc(C(=O)NC3CCCc4ccccc43)c2N)c1 (centres unmarked),15.9
4,OCC(Cl)CCl (centres unmarked),10.8
5,CCOc1ccc(CN(C)CC(=O)NNC(=O)c2ccc(Cl)cc2)cc1OC,-26.2
6,Cc1ccc(S(=O)(=O)N2CCCSCC2)cc1,9.76
7,Cc1cccc(N2CCN(CCNC(=O)c3cc4c(s3)CS(=O)(=O)C4)CC2)c1C,-12.3
8,C/C(=N\NC(=O)Cc1ccc(Cl)cc1)c1cccc(NC(=O)c2cccnc2)c1,12.8
9,CCn1c(SCc2ccccc2F)nnc1-c1ccncc1,10.2
10,CN1CCN(C(=O)c2cc(Cl)ccc2NC(=O)c2ccc(Cl)cc2Cl)CC1,12.6
11,Cc1ccc(-c2nnn3c2nc(NC(C)C)c2ccccc23)cc1,9.78
12,O=C(OCc1c(Cl)cccc1Cl)c1cccnc1Cl,3.32
13,N#CC(C(=O)NC1CC1)c1nc2ccccc2nc1N1CCN(C/C=C/c2ccccc2)CC1 (centres unmarked),-32.6
14,CCN(CC)C(=O)Cn1cc(S(=O)(=O)CC(=O)Nc2ccccc2F)c2ccccc21,-10.5
15,Cc1ccc(SCc2cc(=O)[nH]c(Nc3nc(C)c4cccc(C)c4n3)n2)cc1,-3.26
16,CC1CCCN(C(=O)COc2ccc(-c3ccccc3)cc2)C1 (centres unmarked),3.78
17,Nn1c(SCCOc2ccccc2)nnc1-c1cccnc1,12.6
18,COc1ccc(C(=O)Nn2cnnc2)cc1OC,12.5
